Test results published in publication PMC6451091.
The list shows a part of the results. For part of these data: At the low end of the ranking, values are background and their order means little. For part of these data: Measured with an extract: partners may take part in the binding.

target: PU.1 (IVT) (UniProt P17947); assay: protein-binding microarray (PBM); conditions: 20 mM HEPES pH 7.9, 100 mM NaCl, 1 mM DTT, 0.2 mg/mL BSA, 0.02% Triton X-100, 2% milk, 0.4 mg/mL salmon testes DNA; 1 h; temperature not stated; high values mean tight binding; double strand, one strand shown; sequences stand for … in GCCTAGCAC…GTGCTAGGTCTTGATTCGCTTGACGCTGCTG

Sequence	binding signal [z-score]
CAGGCAAGGAACTACTGTGC	1.06
AAAAAGAGGAAGTGATGATG	9.07
GAAATAAGGAAGTCAATGTC	6.57
GAGAAGGGGAAATACTGTGC	2.6
CCAGAGGGGAACTGAACAAG	1.91
AAATAGAGGAAATGCTTTCT	4.22
CCTTGGAGGAAGTGGTCAGA	3.25
AGAGACAGGAAGTGCAAGAG	2.79
TGAAAGCGGAAGTGCAACCA	7.48
GCTTAGGGGAAGTGGTTCCC	3.79
CCAGGGAGGAAGTGCAGTCC	3.41
CGAAAGGGGAAGTGCTAAAA	6.97
CGAATGAGGAACTGATGCGG	5.03
AGAAAGAGGAAATGACTTTA	6.15
TGAGAGGAGAAGTACTGTGT	1.72
AAGCAGGGGAAGTGAAATAA	3.14
AGCAGGAGGAAGTGAAGCTA	3.77
TGGTTGAGGAAGTGTTGGAG	3.73
GCAGGGAGGAAGTGCTCTGG	3.98
AAAAACAGGAAGTCAAAGGA	7.11

Sequence	binding signal [z-score]
AGAACAAGGAAGTGAGCTAT	3.85
AGGAAGAGGAAGTGGAAGAA	6.4
CTTTTAAGGAAGTGCTCACT	4.92
CGAAAGGGGAAGTGCTAAAT	7.23
AGAATGAGGAAGTGGAAGCA	7.55
GGAAGGAGGAAGTGCTTTGT	6.31
AGAAAGAGGAAGTCTCTGCC	7.37
TGAAAGAGGAAGTGCAACGA	7.57
GGGAAGAGGAAGTATGCAAT	5.97
AGAAGAGGGAAGTGGTTCAA	4.9
TTTAAAGGGAAATACTGTGG	1.36
GGAAAGGGGAAGTGGGCACC	7.25
TAAATGAGGAAGTGAGCTAG	7.58
GCAGAGGGGAAGTGACATCT	4.04
ACTGAGGGGAAGTGGTTCCA	3.76
AGAAAGAGGAAGAGAGAGGG	4.5
AGAGAGAGGAAGTGCTCAGA	4.87
TGAAAGGGGAAGTGCAACCA	7.1
GATAAGAGGAAGTCCTCTGA	5.59

target: PU.1 (endogenous, THP-1 nuclear extract) (UniProt P17947); assay: nuclear extract protein-binding microarray (nextPBM); conditions: 20 mM HEPES pH 7.9, 100 mM NaCl, 1 mM DTT, 0.2 mg/mL BSA, 0.02% Triton X-100, 2% milk, 0.4 mg/mL salmon testes DNA; 1 h; temperature not stated; high values mean tight binding; double strand, one strand shown; sequences stand for … in GCCTAGCAC…GTGCTAGGTCTTGATTCGCTTGACGCTGCTG

Sequence	binding signal [z-score]
CAGGCAAGGAACTACTGTGC	0.793
AAAAAGAGGAAGTGATGATG	7.66
GAAATAAGGAAGTCAATGTC	6.56
GAGAAGGGGAAATACTGTGC	2.11
CCAGAGGGGAACTGAACAAG	1.86
AAATAGAGGAAATGCTTTCT	4.39
CCTTGGAGGAAGTGGTCAGA	3.27
AGAGACAGGAAGTGCAAGAG	2.74
TGAAAGCGGAAGTGCAACCA	7.1
GCTTAGGGGAAGTGGTTCCC	4.18
CCAGGGAGGAAGTGCAGTCC	3.38
CGAAAGGGGAAGTGCTAAAA	6.83
CGAATGAGGAACTGATGCGG	5.88
AGAAAGAGGAAATGACTTTA	6.41
TGAGAGGAGAAGTACTGTGT	1.49
AAGCAGGGGAAGTGAAATAA	3.03
AGCAGGAGGAAGTGAAGCTA	4.31
TGGTTGAGGAAGTGTTGGAG	3.6
GCAGGGAGGAAGTGCTCTGG	3.85
AAAAACAGGAAGTCAAAGGA	7.03

Sequence	binding signal [z-score]
AGAACAAGGAAGTGAGCTAT	4.54
AGGAAGAGGAAGTGGAAGAA	6.51
CTTTTAAGGAAGTGCTCACT	5.44
CGAAAGGGGAAGTGCTAAAT	7.1
AGAATGAGGAAGTGGAAGCA	7.27
GGAAGGAGGAAGTGCTTTGT	6.69
AGAAAGAGGAAGTCTCTGCC	7.16
TGAAAGAGGAAGTGCAACGA	7.37
GGGAAGAGGAAGTATGCAAT	6.56
AGAAGAGGGAAGTGGTTCAA	4.75
TTTAAAGGGAAATACTGTGG	0.905
GGAAAGGGGAAGTGGGCACC	6.91
TAAATGAGGAAGTGAGCTAG	7.34
GCAGAGGGGAAGTGACATCT	4.32
ACTGAGGGGAAGTGGTTCCA	3.49
AGAAAGAGGAAGAGAGAGGG	5.17
AGAGAGAGGAAGTGCTCAGA	4.81
TGAAAGGGGAAGTGCAACCA	7.08
GATAAGAGGAAGTCCTCTGA	6.41

target: T1, FLI1 (endogenous, THP-1 nuclear extract) (UniProt Q01543); assay: as above; conditions: 20 mM HEPES pH 7.9, 100 mM NaCl, 1 mM DTT, 0.2 mg/mL BSA, 0.02% Triton X-100, 2% milk, 0.4 mg/mL salmon testes DNA; 1 h; temperature not stated; high values mean tight binding; double strand, one strand shown; sequences stand for … in GCCTAGCAC…GTGCTAGGTCTTGATTCGCTTGACGCTGCTG
T1 sequence: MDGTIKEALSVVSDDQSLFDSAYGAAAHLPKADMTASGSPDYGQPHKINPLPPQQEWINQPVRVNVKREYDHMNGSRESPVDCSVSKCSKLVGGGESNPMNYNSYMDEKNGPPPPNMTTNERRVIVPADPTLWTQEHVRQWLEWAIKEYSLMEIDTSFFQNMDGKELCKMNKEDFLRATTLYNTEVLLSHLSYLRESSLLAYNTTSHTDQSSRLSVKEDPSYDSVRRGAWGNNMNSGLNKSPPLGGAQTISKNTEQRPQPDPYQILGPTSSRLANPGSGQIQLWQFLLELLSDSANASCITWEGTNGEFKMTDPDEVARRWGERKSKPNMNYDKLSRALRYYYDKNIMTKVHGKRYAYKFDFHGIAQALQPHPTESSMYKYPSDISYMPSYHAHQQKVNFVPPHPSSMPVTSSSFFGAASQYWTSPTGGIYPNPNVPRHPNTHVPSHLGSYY

Sequence	binding signal [z-score]
CAGGCAAGGAACTACTGTGC	-0.115
AAAAAGAGGAAGTGATGATG	5
GAAATAAGGAAGTCAATGTC	2.66
GAGAAGGGGAAATACTGTGC	1.66
CCAGAGGGGAACTGAACAAG	0.709
AAATAGAGGAAATGCTTTCT	2.59
CCTTGGAGGAAGTGGTCAGA	2.4
AGAGACAGGAAGTGCAAGAG	4.69
TGAAAGCGGAAGTGCAACCA	5.42
GCTTAGGGGAAGTGGTTCCC	1.98
CCAGGGAGGAAGTGCAGTCC	2.85
CGAAAGGGGAAGTGCTAAAA	3.48
CGAATGAGGAACTGATGCGG	1.56
AGAAAGAGGAAATGACTTTA	3.36
TGAGAGGAGAAGTACTGTGT	-0.175
AAGCAGGGGAAGTGAAATAA	2.18
AGCAGGAGGAAGTGAAGCTA	2.4
TGGTTGAGGAAGTGTTGGAG	2.24
GCAGGGAGGAAGTGCTCTGG	2.83
AAAAACAGGAAGTCAAAGGA	4.55

Sequence	binding signal [z-score]
AGAACAAGGAAGTGAGCTAT	1.97
AGGAAGAGGAAGTGGAAGAA	3.54
CTTTTAAGGAAGTGCTCACT	2.17
CGAAAGGGGAAGTGCTAAAT	3.16
AGAATGAGGAAGTGGAAGCA	3.8
GGAAGGAGGAAGTGCTTTGT	3.48
AGAAAGAGGAAGTCTCTGCC	3.7
TGAAAGAGGAAGTGCAACGA	3.85
GGGAAGAGGAAGTATGCAAT	2.96
AGAAGAGGGAAGTGGTTCAA	1.9
TTTAAAGGGAAATACTGTGG	1.05
GGAAAGGGGAAGTGGGCACC	3.32
TAAATGAGGAAGTGAGCTAG	3.77
GCAGAGGGGAAGTGACATCT	2.18
ACTGAGGGGAAGTGGTTCCA	2.22
AGAAAGAGGAAGAGAGAGGG	1.56
AGAGAGAGGAAGTGCTCAGA	2.95
TGAAAGGGGAAGTGCAACCA	2.86
GATAAGAGGAAGTCCTCTGA	2.88
